Results: the supplement of paper PMC12632987
In all, about 4,500 sequences were measured (“median log2 fold change of GCK-ALFA target abundance (FLAG IP / Myc IP barcode read proportion)”: median about 0.078, lowest 2% from about -0.6 on). The list shows a part of the results.

B1: GBRAP_125_2990 (protein)
chain: SEEEILEALAKILKALGFDDEDVKEAVELARKHGIKGTLYAALAALGADEAADAVAKLTEEQAKELVLKVAEELEKNPGMTPEEVVELLLKVANELLAKA
B2: GBRAP_160_4430 (protein)
chain: AEKLEKAKKEIDALFAEALEMMKGQTAEQRIVVLRVTEGEVKLELEELGLLTDEVDAVIDATFAAIIAHVAAHPDITDAELAALLDAAAATIKAELDKAA
B3: GBRAP_43_5766 (protein)
chain: SKELVDGAFETAILMLEDPSISEETKVKAIIAAFELAADEGYVNKELLKKVVELAGKTLSKESLEKILKAVEEIAKKYPEAKEAFEEAAALLKKKIEEKK
B4: GBRAP_160_4786 (protein)
chain: MERIERASKLLREELEEAIKLSEGETPENRVNIFDVEIGSAIMELIEEGLLNDEEEEVLAEVRDELVARLRANPDLTPEEIRALAEEAVERFEKRLKELE
B5: GBRAP_160_4335 (protein)
chain: SAETEKLIKFIKEEFEKLKEDIKGLSIEQRKVLISGMFGEIIMELSENENISDELLDYVLEVEDELLETLDKNPDLSEEEIKELIDEAEEKIIEALKKSE
B6: GBRAP_160_4707 (protein)
chain: SETAEELIKYVDEEFEEMKEEIKGESAEQRATIARGAIGEIIMELVENPEASDELVDKVDEIGDELVETILSNPDLTDEEVEELIEEAREKIKKAIKEEI
B7: GBRAP_128_3373 (protein)
chain: VDEEKLEEVDELARAMAEADVEEARELAREIVELLSTLSKETAEKAVEIIKEHLPLLSAEKLDVFADVIRELRPEVDEYIASLLNDLEVEALNEAEEKEE
B8: GBRAP_80_6829 (protein)
chain: MEEELKKAIEELKKIDPEIAELVEEAIEIAKKLGVPLETLLRFTKAILELAKKDKEKARELVEELLKELKEAEKRGNKDEAEALLAEAESEALLAVEELE
B9: GBRAP_11_2877 (protein)
chain: KKEKLKEIAELAEKLVELIEKLLKEGTDNKELIEEATKLLEELEKLVKEYADEALKKLAKILKEEWEKALKDKENAEQYLQEALTIARVLSGQALLEYEE
B10: GBRAP_48_5826 (protein)
chain: AKPPLEVLEKLVEETVEFIKEIYEEAKEEGLSDEEILKMIKAELGDLSLELEEAGFEKAADFLRDPKNRDEIAKTLLELLKKGKVEEAKKYLLERLLKAE
B11: GBRAP_128_3253 (protein)
chain: MDEAVVERARAFVEALKNSDAETRKAIAAEFAAWLLSLSLEQAEQAAEVVKERLPELSAEDLDILADALAAAMPKATPEKANVLADLRVEALNEREEKEE
B12: GBRAP_9_7149 (protein)
chain: MKELIEKLREVVRDMFELVAEIVPEEVHPVVEKMLEEAEKRFEELAKDKTITKEEAVEKAKEIVREFRDAVAAEVDPETARMVQAVADTAELEIEEIAEE
B13: GBRAP_52_6006 (protein)
chain: MREELEKVLREALELVKAGKEEEAYKLLLETVKSLNDEEVELLVEELARLAARAPLEDHDAVWRLAELLAEALEEAGKDEALADEALARVAAALYDNELR
B14: GBRAP_57_6447 (protein)
chain: SAHLEAVRAAAAELIALLRAGAPPEERRAAAAALMDLLSDDVVDLVAAILDPEAAEGKDRAELKALVVEELLRLAEERGPAAAIRVVETALAQEELLAEE
B15: GBRAP_128_3292 (protein)
chain: SAEALRARYDAEVRALLALTPEELHKATLALIKEASAEGLEAVELLVEAIEAHVPEFTVEQLEAIAAALREAMKEVSPEEAALLADAENVALLEAERKEE
B16: GBRAP_11_2779 (protein)
chain: KEEALKEAAKLAEELAELIEKLLKEGLDNEELRKKAEELLKKLTELVKKNLDEDLKKLAEIAKEEWEKAKKDKANAKEHLERMLAAVRVLLGQILLLLEE
B17: GBRAP_11_2623 (protein)
chain: KKETLKKLAELAKEAAELAKKLLEEGVDNEELRKKLEEKIKELAKLTEENADEADKKDVEIIKELFEKSLKDKENAEKYFKELLAALRVLEGNYLLDIEE
B18: GBRAP_184_5070 (protein)
chain: KVFEETIKVNNKEEAIKKMDELEEKIKDFKGDLLVHVEMPEANKEVIKTILDKLAEIKDKGYVTKVTIGFDADFTEEEIDFAVEYADKKGISVTLAISEE
B19: GBRAP_52_6185 (protein)
chain: MREELRAEVLRMLALVKAGREAEARALAEELVARLSDEELELLVEVLAEVAAEAPLADADAVFRLAEILADALEAAGKDEALAEDILAAAARALHAKELA

target: GABARAP, O95166; assay: median log2 fold change of GCK-ALFA target abundance (FLAG IP / Myc IP barcode read proportion) (log2 ratio); each designed protein is fused to an ALFA-tag nanobody in HEK293 cells to bring the named protein to FLAG-tagged glucokinase (GCK); Myc marks an untargeted standard; higher = target protein stabilised (more abundant); settings: target protein: 3xFLAG-MCP-GCK-ALFA reporter; HEK293 landing pad (RPLP)
Sequence (O95166 whole entry, the tested form may be a part): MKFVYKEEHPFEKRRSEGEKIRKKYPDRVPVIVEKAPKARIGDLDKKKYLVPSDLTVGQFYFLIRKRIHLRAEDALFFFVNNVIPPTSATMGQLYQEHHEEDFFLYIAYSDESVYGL
Procedure, shortened: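 HEK293 landing-pad cells received a recombined binder library fused to the ALFA nanobody and were induced with 2 μg mL^−1 doxycycline, then transfected with a plasmid encoding a FLAG-tagged target and a Myc-tagged standard. Lysates were collected after 48 h for anti-FLAG and anti-Myc immunoprecipitation, and the circular RNA barcodes were reverse transcribed, amplified and sequenced. Target abundance for each binder is the median log2 ratio of FLAG to Myc barcode read proportions. Barcodes had to reach a proportion of at least 10^−7 in both replicates, each binder needed at least 3 barcodes per replicate, a pseudocount of 10^−6 was applied, and the two replicates were pooled.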

In order of rising “median log2 fold change” value:
1. B6  -0.312
2. B13  -0.177
3. B15  -0.0614
4. B1  -0.0521
5. B5  -0.0507
6. B12  0.0444
7. B2  0.0561
8. B4  0.0742
9. B7  0.123
10. B10  0.157
11. B19  0.176
12. B8  0.192
13. B17  0.193
14. B11  0.212
15. B3  0.215
16. B9  0.232
17. B18  0.235
18. B14  0.242
19. B16  0.244
